# Measured values as given in the supplement of paper PMC3656093.
# ± gives the standard deviation of the averaged measurements. The full ranking holds about 1,900 compounds; the median of “CD40L-induced NF-kB luciferase activity, plate-corrected, relative to DMSO (0) and IKK inhibitor VII (-100) controls” is about 0.032, and the lowest 2% start at about -26. The list shows a part of the results.
# Tested on: BL2-NFkB-Luc
# Assay: CD40L-induced NF-kB luciferase activity, plate-corrected, relative to DMSO (0) and IKK inhibitor VII (-100) controls (% normalized activity); higher = more NF-kB reporter activity (less inhibition)
# Conditions: 9.4 µM; stimulus: tCD40L 64 ng/ml; 4.5 h
# Method: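 BL2 B cells with a stable NF-kB response-element luciferase reporter (BL2-NFkB-Luc), 384-well. Cells were pre-incubated with compound at 9.4 uM for 1 h at 37 C, then stimulated with 64 ng/ml trimerized CD40L for 4.5 h; luciferase was read with Steady-Glo. Signal was normalised per plate in Genedata (median DMSO neutral control = 0, median IKK inhibitor VII at 50 uM = -100) with Assay Median plate-pattern correction; duplicate plates.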
row,Structure (SMILES),CD40L-induced NF-kB luciferase activity
1,O=C1NC(=O)C2(Cc3ccccc3N3CCCC32)C(=O)N1c1ccc(Cl)cc1 (stereo unspecified),8.57 ± 3.4
2,Cc1nc2ccccc2c(=O)n1-c1ccc(C(=O)O)cc1,4.46 ± 4.7
3,Cc1c2ccncc2c(C)c2c1[nH]c1ccccc12,175 ± 18
4,COc1cc(/C=C2\C(=O)NC(=O)N(c3ccccc3)C2=O)c([N+](=O)[O-])cc1OC,2.06 ± 2.5
5,C[N+]1(C)[C@@H]2CC[C@H]1CC(OC(=O)C(CO)c1ccccc1)C2 (stereo partly specified),3.62 ± 3.9
6,CCOC(=O)C1=C(C)OC(N)=C(C(=O)OCC)[C@@]12C(=O)N(CC(N)=O)c1ccccc12,9.35 ± 2.2
7,CC/C(=C\C=C\[C@@H]1C=C[C@@H]2CCC[C@H]2[C@@H]1C(=O)c1ccc[nH]1)[C@@H]1O[C@@H]([C@@H](C)C(=O)O)CC[C@@H]1C,-2.16 ± 7.7
8,CN1CCN(C(=O)OC2c3nccnc3C(=O)N2c2ccc(Cl)cn2)CC1 (stereo unspecified),-0.535 ± 0.21
9,CCNC(=O)[C@H]1O[C@@H](n2cnc3c(N)ncnc32)[C@H](O)[C@@H]1O,-4.01 ± 3.1
10,CCn1ccnc1CN1CCCC(C(=O)c2cc(F)ccc2OC)C1 (stereo unspecified),-4.36 ± 8.7
11,Cc1cccc(C)c1NC1=NCCCS1,-0.549 ± 5.8
12,CN(C)[C@@H]1C(=O)C(C(N)=O)C(=O)[C@@]2(O)C(=O)C3C(=O)c4c(O)cccc4[C@@](C)(O)[C@H]3[C@H](O)[C@@H]12 (stereo partly specified),0.102 ± 0.97
13,COc1cc([C@@H]2c3cc4c(cc3[C@H](O)[C@H]3COC(=O)[C@H]23)OCO4)cc(OC)c1OC,-50.7 ± 3
14,CN1CC[C@@]23CCCC[C@@H]2[C@@H]1Cc1ccc(O)cc13,2.11 ± 3.6
15,CC[C@H]1CN2CCc3cc(OC)c(OC)cc3[C@@H]2C[C@@H]1C[C@H]1NCCc2cc(OC)c(OC)cc21,-93.93 ± 0.21
16,C[N+](C)(C)Cc1ccccc1,-5.43 ± 0.3
17,CCC(COC(=O)c1cc(OC)c(OC)c(OC)c1)(c1ccccc1)N(C)C (stereo unspecified),-3.99 ± 2.7
18,C[N+]12CCC(CC1)C(OC(=O)C(O)(c1ccccc1)c1ccccc1)C2 (stereo unspecified),-2.63 ± 1.2
19,O=C1C(=O)c2ccccc2-c2ccccc21,-94.61 ± 0.41
20,CN1C2CCC1CC(OC(=O)CCN1CCCC1)C2 (stereo unspecified),-3.67 ± 0.86
21,CCOC(=O)C(C)Oc1cc(C)cc2oc(=O)c3c(c12)CCCC3 (stereo unspecified),-5.6 ± 4.1
